Laboratory results reported in patent US20180273573A1, “INHIBITORS OF MENAQUINONE BIOSYNTHESIS” (Memorial Sloan-Kettering Cancer Center, priority 2015, published 2018).

Molecular target: E. coli MenE (ecMenE) (Escherichia coli, UniProt P37353)
Experiment: MenE-MenB coupled assay (enzyme inhibition, catalytic parameters)
Conditions: up to a concentration of 100 μM

Sequence of E. coli MenE (ecMenE) (P37353 whole entry): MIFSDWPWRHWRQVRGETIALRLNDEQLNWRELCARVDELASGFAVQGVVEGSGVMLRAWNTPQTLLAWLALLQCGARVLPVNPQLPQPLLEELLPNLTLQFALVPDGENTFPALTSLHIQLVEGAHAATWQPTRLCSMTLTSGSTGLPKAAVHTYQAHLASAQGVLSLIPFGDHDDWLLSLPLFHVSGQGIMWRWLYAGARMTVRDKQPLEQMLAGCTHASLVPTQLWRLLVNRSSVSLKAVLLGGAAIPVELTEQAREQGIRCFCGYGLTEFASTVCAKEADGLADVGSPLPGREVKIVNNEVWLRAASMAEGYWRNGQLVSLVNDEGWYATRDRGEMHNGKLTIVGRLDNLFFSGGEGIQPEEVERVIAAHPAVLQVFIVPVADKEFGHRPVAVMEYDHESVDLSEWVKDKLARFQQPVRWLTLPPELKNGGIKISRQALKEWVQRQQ

SMILES | inhibition of ecMenE
Nc1ncnc2c1ncn2[C@@H]1O[C@H](COS(=O)(=O)NC(=O)CCC(=O)c2cccc(C(=O)O)c2)[C@@H](O)[C@H]1O [Compound 102, 5′-O—(N-[4″-(3′″-(Carboxyl)phenyl)-4″-oxobutanoyl]sulfamoyl)adenosine] | no inhibition
Nc1ncnc2c1ncn2[C@@H]1O[C@H](COS(=O)(=O)NC(=O)CCC(=O)c2ccccc2[N+](=O)[O-])[C@@H](O)[C@H]1O [Compound 103, 5′-O—(N-[4-(2-Nitrophenyl)-4-oxobutanoyl]sulfamoyl)adenosine] | no inhibition
Nc1ncnc2c1ncn2[C@@H]1O[C@H](COS(=O)(=O)NC(=O)CCC(=O)c2ccccc2-c2cnco2)[C@@H](O)[C@H]1O [Compound 104, 5′-O—(N-[4-(2-(5-Oxazolyl)phenyl)-4-oxobutanoyl]sulfamoyl)adenosine] | no inhibition
